Several values for one entry are separate records, joined by “and”; a condition that tells them apart may be missing. Identical values can stand only once. The shares of active, inactive and inconclusive entries below differ from those in the screen. For part of these data: A potency beside an inconclusive call is a rough fit, not a confirmed value. The source holds several records for some structures; these can differ, active in one and inactive in another. Activity calls are given as the source filed them. Unless noted, the call rests on the fitted dose curve; in most records, active means well fitted curve in the direction sought with a large enough effect; inconclusive means small, poorly fitted or top-dose-only effect, or another doubt; inactive means no such curve, though single readings can be large; an effect the other way counts as inactive or inconclusive.
How the values were obtained:
[1] = AP1 Signaling Pathway (AID 357; active means well fitted curve in either direction with a large enough effect, not every such curve was filed as active; inconclusive means small, poorly fitted or top-dose-only effect, or another doubt;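 further: ME-180 reporter cells stimulated with EGF at its EC50 level; top concentration of the series differs between compounds; on the % scale 0 is the no-effect control and ±100 the full control effect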); details: ME-180 AP-1-bla reporter, EGF-induced, beta-lactamase ratio, 5 h; at 17.2 µM (top of the series)
Procedure, shortened: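 A ratiometric CCF4 readout (405 nm excitation; 460 and 530 nm emission) quantified AP-1-driven beta-lactamase in ME-180 cells after 5 h with compound and EC50 EGF; AC50 values were derived for activators and inhibitors.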

[2] = target: Cytochrome P450 1A2 (Homo sapiens) (UniProt P05177); test: p450-cyp1a2 (AID 410; calls by dose curve; further: potency means the concentration at half of the fitted maximal effect;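 on activity change, negative = inhibition: top concentration of the series differs between compounds; -100% = full effect of reference inhibitor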)
Sequence of UniProt P05177 (P05177 whole entry, looked up): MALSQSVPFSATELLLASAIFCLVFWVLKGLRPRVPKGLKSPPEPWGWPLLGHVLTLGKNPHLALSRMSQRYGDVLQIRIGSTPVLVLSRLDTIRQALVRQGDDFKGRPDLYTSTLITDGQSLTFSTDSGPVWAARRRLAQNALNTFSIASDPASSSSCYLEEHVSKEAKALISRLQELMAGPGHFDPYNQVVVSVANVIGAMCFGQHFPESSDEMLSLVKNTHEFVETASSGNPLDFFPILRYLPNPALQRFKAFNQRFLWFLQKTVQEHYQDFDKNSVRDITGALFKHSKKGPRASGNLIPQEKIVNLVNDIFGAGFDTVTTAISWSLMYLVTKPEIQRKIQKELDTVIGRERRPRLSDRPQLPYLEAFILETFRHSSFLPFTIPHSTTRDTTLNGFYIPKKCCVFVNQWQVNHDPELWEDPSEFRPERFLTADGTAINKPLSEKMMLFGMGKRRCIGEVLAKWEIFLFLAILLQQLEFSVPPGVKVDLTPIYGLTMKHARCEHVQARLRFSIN
Procedure, shortened: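 Read-out is luminescence from luciferin produced by CYP1A2 demethylation of Luciferin-ME (100uM, at Km). Detection reagent stopped the 60 min NADPH-dependent reaction; signals were normalized to 57 uM furafylline.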

[3] = NFAT Signaling Pathway (AID 444; active means well fitted curve in either direction with a large enough effect, not every such curve was filed as active; inconclusive means small, poorly fitted or top-dose-only effect, or another doubt;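 further: carbachol stimulus at about its EC50 of 1 µM final; on the % scale 0 is the no-effect control and ±100 the full control effect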); details: Jurkat NFAT-bla M1, carbachol, beta-lactamase ratio, 5 h; at 17.2 µM (top of the series)
Procedure, shortened: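 Jurkat cells carrying an NFAT-driven β-lactamase reporter and co-transfected muscarinic M1 receptor were treated with compound plus carbachol (1 uM final, an EC50 level) for 5 h at 37 °C. CCF4 loading followed for 1 h at RT; 460/530 nm ratio gave %activity.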

[4] = target: Mitogen-activated protein kinase 10 (Mus musculus) (UniProt Q61831); test: JNK3 AlphaScreen Assay (AID 530; active means well fitted curve in either direction with a large enough effect, not every such curve was filed as active; inconclusive means small, poorly fitted or top-dose-only effect, or another doubt;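 further: kinase came from lysate of stimulated human HepG2 cells; signal reports phosphorylation of biotinylated GST-cJun 1-79 at Ser73 with 10 µM ATP; potency means the concentration at half of the fitted maximal effect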); details: JNK3 lysate, c-Jun phosphorylation; activity change, negative = inhibition: at 57.1 µM (top of the series)
Procedure, shortened: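 Biotinylated GST-cJun(1-79) served as substrate for JNK3 in HepG2 lysates stimulated with IL-1beta and TNF-alpha. ATP was 10 uM final, pH 7.6. Ser73 phosphorylation was quantified by AlphaScreen (680 nm excitation).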

[5] = target: Cytochrome P450 3A4 (Homo sapiens) (UniProt P08684); test: qHTS Assay for Inhibitors and Substrates of Cytochrome P450 3A4 (AID 884); details: recombinant CYP3A4, Luciferin-PPXE luminescence; activity change, negative = inhibition: at 57.1 µM (top of the series); further: potency means the concentration at half of the fitted maximal effect; nearly all actives have a fitted effect of over 50% in size
Sequence of UniProt P08684 (P08684 whole entry, looked up): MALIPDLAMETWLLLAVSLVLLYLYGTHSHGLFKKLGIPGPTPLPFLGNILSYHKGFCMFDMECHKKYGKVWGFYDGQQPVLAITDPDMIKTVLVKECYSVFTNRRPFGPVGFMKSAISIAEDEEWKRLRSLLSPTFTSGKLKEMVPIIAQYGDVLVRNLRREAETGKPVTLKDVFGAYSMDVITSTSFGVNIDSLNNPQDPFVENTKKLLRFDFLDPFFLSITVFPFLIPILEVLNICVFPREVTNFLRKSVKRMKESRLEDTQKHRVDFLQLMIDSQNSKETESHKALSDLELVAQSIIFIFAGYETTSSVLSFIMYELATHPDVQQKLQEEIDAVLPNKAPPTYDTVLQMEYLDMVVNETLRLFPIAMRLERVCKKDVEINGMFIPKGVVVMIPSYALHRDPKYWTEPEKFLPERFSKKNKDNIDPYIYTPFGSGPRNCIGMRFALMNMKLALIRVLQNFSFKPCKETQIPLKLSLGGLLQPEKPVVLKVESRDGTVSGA
Procedure, shortened: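 Luminescent readout of luciferin produced by CYP3A4 (20 nM) dealkylation of Luciferin-PPXE, 25 uM (its KM). NADPH-driven reaction ran 60 min at RT after 10 min compound preincubation; data scaled to 57 uM ketoconazole as 100% inhibition.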

[6] = qHTS Assay for Identification of Small Molecule Antagonists for NFkB Signaling Pathway (AID 895; active means well fitted inhibition curve with a large enough effect in the signal ratio, with a control signal flat, not every such curve was filed as active; inconclusive means small, poorly fitted or top-dose-only effect, or effect the other way, or a change in a side signal; the % refers to the signal ratio; further: potency means the concentration at half of the fitted maximal effect); details: NFkB beta-lactamase reporter cells, FRET ratio 460/530, stimulated with 10 pM TNF alpha; activity change, negative = inhibition: at 38.3 µM (top of the series)
Procedure, shortened: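 NFkB-bla ME-180 cervical carcinoma cells with beta-lactamase reporter under NFkB response element; compounds added, then TNF alpha at 10 pM final (EC50), 5 h at 37 C. LiveBLAzer substrate 2 h, room temperature; emission 460/530 nm at 405 nm excitation.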

[7] = qHTS Assay for Identification of Small Molecule Agonists for Hypoxia Response Element Signaling Pathway (AID 914; active means well fitted activation curve with a large enough effect in the signal ratio, with a control signal flat, not every such curve was filed as active; inconclusive means small, poorly fitted or top-dose-only effect, or effect the other way, or a change in a side signal; the % refers to the signal ratio; further: potency means the concentration at half of the fitted maximal effect); details: ME-180 (cervical carcinoma) HRE-bla reporter, beta-lactamase ratio, CoCl2, 17 h; activation: stronger effect = higher value
Procedure, shortened: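 A beta-lactamase reporter under hypoxia response element control in ME-180 cells served as the system. Compound titrations plus EC50 CoCl2 ran 17 h at 37 degrees Celsius; AC50 values were fitted from %Activity.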

[8] = qHTS Assay for Identification of Small Molecule Agonists for Thrombopoietin (TPO) Signaling Pathway (AID 917); further: potency means the concentration at half of the fitted maximal effect
Procedure, shortened: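 Human TPO receptor–transfected Ba/F3 cells (murine, IL-3-dependent) in IL-3-deficient medium; compounds plus TPO at EC50, 26 pM final; 24 hrs, 37 C; GpIIb-luciferase luminescence after 10 min RT detection.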

[9] = target: Muscarinic acetylcholine receptor M1 (Rattus norvegicus) (UniProt P08482); test: qHTS Assay for Antagonists of Acetylcholine Muscarinic M1 Receptor: Kinetic Measurement of Intracellular Calcium Response (AID 943); further: potency means the concentration at half of the fitted maximal effect; nearly all actives have a fitted effect of over 75% in size
Sequence of UniProt P08482 (P08482 whole entry, looked up): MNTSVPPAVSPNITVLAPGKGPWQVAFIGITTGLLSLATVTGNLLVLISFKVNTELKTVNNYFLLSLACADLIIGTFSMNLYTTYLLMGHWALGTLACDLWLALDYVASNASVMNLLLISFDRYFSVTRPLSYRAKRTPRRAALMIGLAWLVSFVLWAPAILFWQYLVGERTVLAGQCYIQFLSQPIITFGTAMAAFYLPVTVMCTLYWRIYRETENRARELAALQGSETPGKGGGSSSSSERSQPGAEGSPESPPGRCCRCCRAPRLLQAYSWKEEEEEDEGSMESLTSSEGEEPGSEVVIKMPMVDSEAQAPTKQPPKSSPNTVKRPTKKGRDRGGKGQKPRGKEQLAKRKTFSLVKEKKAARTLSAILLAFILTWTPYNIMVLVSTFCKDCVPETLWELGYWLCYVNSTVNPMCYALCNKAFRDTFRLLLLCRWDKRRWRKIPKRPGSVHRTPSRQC
Procedure, shortened: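 Quantitative HTS in CHO-M1 (rat receptor) cells: 10 min compound exposure ahead of 100 nM carbachol, Fluo-4 fluorescence followed 4 min, value expressed as peak-to-basal ratio.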

[10] = target: Muscarinic acetylcholine receptor M1 (Rattus norvegicus) (UniProt P08482); test: qHTS Assay for Antagonists of Acetylcholine Muscarinic M1 Receptor: Measurement of IP-One Response (AID 944); further: potency means the concentration at half of the fitted maximal effect; nearly all actives have a fitted effect of over 75% in size
[11] = qHTS for differential inhibitors of proliferation of Plasmodium falciparum line HB3 (AID 1886); details: Potency: Plasmodium falciparum HB3 proliferation inhibition;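 further: potency means the concentration at half of the fitted maximal effect; parasites grown with compound for 72 h before SYBR Green readout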
[12] = High Content Imaging Cell-Based qHTS for Inhibitors of the mTORC1 Signaling Pathway in MEF Cells (AID 2667); further: potency means the concentration at half of the fitted maximal effect
Procedure, shortened: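 Fixed-cell imaging of phospho-S6 (Ser235/236, Alexa-488) after 24 hrs of compound treatment at 37 degree Celsius. Signal was normalized to Hoechst, and thresholds from the highest and lowest wells split cells into % active versus % non-active.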

[13] = Cytometry Cell-Based qHTS for Inhibitors of the mTORC1 Signaling Pathway in MEF cells (AID 2668); further: potency means the concentration at half of the fitted maximal effect
Procedure, shortened: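 In MEFs grown in DMEM + 10% FBS, a 24 hrs compound exposure preceded imaging of phospho-rpS6 Ser235/236 by laser-scanning cytometry.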

[14] = target: ATP-dependent 6-phosphofructokinase (Trypanosoma brucei brucei) (UniProt O15648); test: qHTS Validation Assay to Find Inhibitors of T. brucei phosphofructokinase (AID 485368); details: activity change, negative = inhibition: at 57.5 µM (top of the series)
Sequence of UniProt O15648 (O15648 whole entry, looked up): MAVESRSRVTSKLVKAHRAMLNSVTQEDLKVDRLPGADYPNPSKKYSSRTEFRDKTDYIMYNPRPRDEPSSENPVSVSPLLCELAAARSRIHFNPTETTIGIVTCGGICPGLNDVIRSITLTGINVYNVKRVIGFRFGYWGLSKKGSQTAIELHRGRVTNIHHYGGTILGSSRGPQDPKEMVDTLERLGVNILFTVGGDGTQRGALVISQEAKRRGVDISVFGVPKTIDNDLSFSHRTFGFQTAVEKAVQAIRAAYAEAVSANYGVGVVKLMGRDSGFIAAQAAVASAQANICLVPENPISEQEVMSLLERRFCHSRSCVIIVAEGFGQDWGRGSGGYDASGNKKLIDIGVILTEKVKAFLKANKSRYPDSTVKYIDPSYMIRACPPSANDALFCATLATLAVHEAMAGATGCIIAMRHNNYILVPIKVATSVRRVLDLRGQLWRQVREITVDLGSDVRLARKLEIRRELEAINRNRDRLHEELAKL
Procedure, shortened: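 qHTS format, up to 57 uM. PFK 1.25 nM; F6P 0.5 mM; ATP 0.1 mM; 5 mM MgCl2, 0.01% Tween20, 0.1% BSA; 0.1 M TEA pH 8.0; 45 min RT; ADP-Glo readout; no-enzyme control = full inhibition.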

[15] = Quantitative high throughput screen for delayed death inhibitors of the malarial parasite plastid, 96 hour incubation (AID 488745); further: potency means the concentration at half of the fitted maximal effect; nearly all actives have a fitted effect of over 70% in size
Procedure, shortened: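 Two-generation (96 h) exposure of luciferase-reporter P. falciparum in erythrocytes, 2% hematocrit, 0.1% parasitemia final, 37 C, 5% CO2, RPMI 1640 with 0.5% Albumax. Growth inhibition scored by reduced luminescence.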

[16] = Quantitative high throughput screen for delayed death inhibitors of the malarial parasite plastid, 48 hour incubation (AID 488752); further: potency means the concentration at half of the fitted maximal effect; nearly all actives have a fitted effect of over 65% in size
Procedure, shortened: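 Cultures: infected erythrocytes at final 2% hematocrit and 0.1% parasitemia in Albumax-supplemented RPMI. Parasites express integrated firefly luciferase. Incubation with compound lasts 48 h before luminescent detection of remaining reporter activity.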

[17] = target: Chromobox protein homolog 1 (Homo sapiens) (UniProt P83916); test: qHTS Validation Assay for Inhibitors of HP1-beta Chromodomain Interactions with Methylated Histone Tails (AID 488953); further: potency means the concentration at half of the fitted maximal effect; nearly all actives have a fitted effect of over 50% in size
Sequence of UniProt P83916 (P83916 whole entry, looked up): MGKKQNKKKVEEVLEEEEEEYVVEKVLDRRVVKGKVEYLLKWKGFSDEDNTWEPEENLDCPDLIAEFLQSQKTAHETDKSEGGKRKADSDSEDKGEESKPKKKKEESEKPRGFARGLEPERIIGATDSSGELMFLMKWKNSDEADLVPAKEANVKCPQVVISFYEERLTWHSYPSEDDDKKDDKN
Procedure, shortened: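 Compounds pinned into a preassembled complex of HP1-beta and trimethyl-K9 histone H3(1-18) biotin peptide (50 nM each; PBS pH 7.4, 0.01% Tween-20). After 30 min, bead-based AlphaScreen detection followed.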

[18] = target: Ubiquitin carboxyl-terminal hydrolase 1 (Homo sapiens) (UniProt O94782); test: Inhibitors of USP1/UAF1: Pilot qHTS (AID 504865);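 further: rhodamine fluorescence freed from ubiquitin-rhodamine substrate followed over time; potency means the concentration at half of the fitted maximal effect; nearly all actives have a fitted effect of over 35% in size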
Sequence of UniProt O94782 (O94782 whole entry, looked up): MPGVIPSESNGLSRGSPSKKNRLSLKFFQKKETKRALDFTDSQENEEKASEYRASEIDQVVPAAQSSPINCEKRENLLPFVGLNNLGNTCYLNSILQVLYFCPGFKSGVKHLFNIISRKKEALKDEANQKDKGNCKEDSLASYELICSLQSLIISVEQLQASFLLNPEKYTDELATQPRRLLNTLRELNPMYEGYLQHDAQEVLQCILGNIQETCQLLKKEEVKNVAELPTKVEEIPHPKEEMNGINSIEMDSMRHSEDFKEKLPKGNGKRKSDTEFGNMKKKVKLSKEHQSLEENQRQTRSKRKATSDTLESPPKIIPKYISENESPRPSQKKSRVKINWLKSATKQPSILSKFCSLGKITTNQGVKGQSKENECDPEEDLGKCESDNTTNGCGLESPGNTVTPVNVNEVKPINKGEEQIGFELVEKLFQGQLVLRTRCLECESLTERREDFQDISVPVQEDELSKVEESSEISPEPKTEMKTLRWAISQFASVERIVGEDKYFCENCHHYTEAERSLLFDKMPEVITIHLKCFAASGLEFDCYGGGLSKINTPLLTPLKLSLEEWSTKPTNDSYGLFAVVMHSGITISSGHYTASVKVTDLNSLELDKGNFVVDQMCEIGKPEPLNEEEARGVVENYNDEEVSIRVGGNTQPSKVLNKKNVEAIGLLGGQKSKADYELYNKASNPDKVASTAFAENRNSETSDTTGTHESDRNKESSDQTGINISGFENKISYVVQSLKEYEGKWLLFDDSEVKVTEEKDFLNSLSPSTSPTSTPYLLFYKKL
Procedure, shortened: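 Enzyme-free wells gave the negative control, while test wells held 1nM USP1/UAF1 preincubated with compound for 15 min at room temperature. Ub-Rho at 150nM final started the reaction, and fluorescence at 480/540 nm was recorded kinetically.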

[19] = qHTS for Inhibitors of ATXN expression: Validation of Cytotoxic Assay (AID 588349); further: on the % scale 0 is the no-effect control and ±100 the full control effect
Procedure, shortened: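 Toxicity of test compounds toward HEK293 cells is scored from cellular ATP content measured by CellTiter Glo. Cells receive titrated doses and incubate 72 hr at 37 degrees C beforehand.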

[20] = target: Voltage-gated inwardly rectifying potassium channel KCNH2 (Homo sapiens) (UniProt Q12809); test: qHTS Assay for Small Molecule Inhibitors of the Human hERG Channel Activity (AID 588834);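 further: potency means the concentration at half of the fitted maximal effect; lower thallium flux fluorescence means stronger hERG block; nearly all actives have a fitted effect of over 50% in size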
Sequence of UniProt Q12809 (Q12809 whole entry, looked up): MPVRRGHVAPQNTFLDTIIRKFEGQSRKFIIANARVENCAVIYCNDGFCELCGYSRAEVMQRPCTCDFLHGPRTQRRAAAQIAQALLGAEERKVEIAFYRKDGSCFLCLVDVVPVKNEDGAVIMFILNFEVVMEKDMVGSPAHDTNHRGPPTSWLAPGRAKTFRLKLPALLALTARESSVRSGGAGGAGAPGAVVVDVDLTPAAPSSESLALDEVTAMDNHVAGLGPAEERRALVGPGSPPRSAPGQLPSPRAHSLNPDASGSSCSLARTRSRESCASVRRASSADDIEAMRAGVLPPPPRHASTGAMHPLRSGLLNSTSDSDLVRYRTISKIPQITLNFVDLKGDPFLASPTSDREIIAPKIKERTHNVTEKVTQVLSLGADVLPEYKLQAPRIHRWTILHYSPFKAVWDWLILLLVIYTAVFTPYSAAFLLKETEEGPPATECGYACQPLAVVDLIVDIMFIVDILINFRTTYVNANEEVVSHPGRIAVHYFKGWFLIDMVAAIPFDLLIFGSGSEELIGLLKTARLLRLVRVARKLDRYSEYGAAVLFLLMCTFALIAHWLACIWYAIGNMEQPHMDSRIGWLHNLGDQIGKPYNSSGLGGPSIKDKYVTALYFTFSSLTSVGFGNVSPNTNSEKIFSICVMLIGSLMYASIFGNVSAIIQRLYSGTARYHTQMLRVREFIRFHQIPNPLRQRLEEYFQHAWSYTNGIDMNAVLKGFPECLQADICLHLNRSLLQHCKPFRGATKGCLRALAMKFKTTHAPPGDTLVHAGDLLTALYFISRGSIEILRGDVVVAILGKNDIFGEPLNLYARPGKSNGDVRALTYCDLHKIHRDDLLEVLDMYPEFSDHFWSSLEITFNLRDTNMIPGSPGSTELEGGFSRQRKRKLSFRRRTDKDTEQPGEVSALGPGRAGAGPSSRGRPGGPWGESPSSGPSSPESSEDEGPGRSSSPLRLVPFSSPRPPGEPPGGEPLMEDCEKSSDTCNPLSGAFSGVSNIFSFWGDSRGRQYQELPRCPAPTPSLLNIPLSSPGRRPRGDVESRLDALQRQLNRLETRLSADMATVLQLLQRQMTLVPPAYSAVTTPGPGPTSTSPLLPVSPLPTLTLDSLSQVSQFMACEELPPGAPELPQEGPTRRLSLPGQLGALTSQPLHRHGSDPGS
Procedure, shortened: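 Homogeneous FluxOR thallium flux assay using hERG-expressing U2OS cells (BacMam). Compound treatment about 10 minutes preceded stimulation; reduced fluorescence taken as channel block.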

[21] = target: Glucagon-like peptide 1 receptor (Homo sapiens) (UniProt P43220); test: qHTS of GLP-1 Receptor Agonists: LOPAC Validation (AID 624148); details: GLP-1R agonist cell assay; activation: at 46.1 µM (top of the series);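 further: 0% is about no effect; higher luminescence signal means agonism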
Sequence of UniProt P43220 (P43220 whole entry, looked up): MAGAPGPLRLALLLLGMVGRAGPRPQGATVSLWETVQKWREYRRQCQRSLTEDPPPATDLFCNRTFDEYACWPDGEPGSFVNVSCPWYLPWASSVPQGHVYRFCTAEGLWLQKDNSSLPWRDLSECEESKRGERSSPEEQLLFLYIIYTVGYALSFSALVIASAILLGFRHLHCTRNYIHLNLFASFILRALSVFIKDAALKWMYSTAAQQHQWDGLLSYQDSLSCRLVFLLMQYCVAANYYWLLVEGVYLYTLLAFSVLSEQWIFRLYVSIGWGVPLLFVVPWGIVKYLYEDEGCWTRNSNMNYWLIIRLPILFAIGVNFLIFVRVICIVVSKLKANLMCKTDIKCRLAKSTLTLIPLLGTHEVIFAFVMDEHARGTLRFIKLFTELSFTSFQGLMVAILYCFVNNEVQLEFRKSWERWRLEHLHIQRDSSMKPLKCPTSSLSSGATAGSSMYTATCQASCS
Procedure, shortened: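 HEK293 cells stably co-expressing a cAMP-responsive luciferase reporter and a hypersensitive GLP-1R were plated 12 h at 37 °C and exposed to compounds for 4-6 hr at 37 °C, 5% CO2. Luminescence was read 12 min after adding detection reagent.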
Tags describe the fitted curve by direction and shape or compound fluorescence and quenching.

COc1ccccc1N1CCN(CCCCNC(=O)c2ccc3ccccc3c2)CC1
inconclusive: activity change, negative = inhibition [1] 8.55% [inhibitor] | activity change, negative = inhibition [3] 178% [activator] | Potency [4] 31.6 µM [activator, partial curve, poor fit] | Potency [5] 7.94 µM [inhibitor, partial curve] | Potency [6] 2.51 µM [inhibitor, partial curve] | Potency [7] 12.6 µM [inhibitor, partial curve] and 1.26 µM [inhibitor, full curve, poor fit] | Potency [8] 12.6 µM [inhibitor, single point] | Potency [9] 14.1 µM [inhibitor, partial curve, poor fit] | Potency [10] 20 µM [inhibitor, partial curve, poor fit] | Potency [12] 16.5 µM [falling, single point] | Potency [13] 26.1 µM [falling, single point] | Potency [17] 56.2 µM [inhibitor, partial curve] | Potency [18] 39.8 µM [inhibitor, partial curve, poor fit]
20 µM (active) and inactive: Potency [2]
inactive: Potency [14] | Potency [19] | Potency [21]
active: Potency [11] 5.01 µM | Potency [15] 2.94 µM | Potency [16] 4.65 µM | Potency [20] 1.12 µM

Source: PubChem BioAssay (NCATS)
